# Experimental data as given in the BET-seq Pho4 binding data (Le et al. 2018).
# This is one part of the list. The energies were worked out here from pooled read counts, against the library average; single values are noisy.
# Molecular target: T1, Pho4 (S. cerevisiae) (UniProt P07270)
# T1 sequence: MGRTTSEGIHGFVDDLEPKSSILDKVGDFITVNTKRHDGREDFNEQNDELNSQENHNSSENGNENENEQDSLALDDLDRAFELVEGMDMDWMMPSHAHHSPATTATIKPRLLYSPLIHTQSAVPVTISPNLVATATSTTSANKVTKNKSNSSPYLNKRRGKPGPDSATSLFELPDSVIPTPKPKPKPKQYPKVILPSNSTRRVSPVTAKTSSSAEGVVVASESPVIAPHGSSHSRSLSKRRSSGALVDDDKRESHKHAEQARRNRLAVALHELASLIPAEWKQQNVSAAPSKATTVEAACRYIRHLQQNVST
# Experiment: relative binding free energy (BET-seq); higher = weaker binding
# Conditions: reference: library average
row,Sequence,relative binding free energy [kcal/mol]
1,GGTGTCACGTGGTGAC,0.11
2,CTGTACACGTGGATTG,0.03
3,AGGCACACGTGATTGG,0.17
4,AGGGGCACGTGTAATT,0.01
5,AGACGCACGTGTTATT,-0.01
6,GAGGGCACGTGTTGAC,0
7,ACTTTCACGTGTTATG,0.19
8,TATAGCACGTGACGGT,-0.07
9,AGCTGCACGTGTGTTG,-0.08
10,TGGGCCACGTGCATGT,-0.2
11,AATTTCACGTGGGTAT,0.18
12,ATGATCACGTGTGTAT,0.13
13,TAGGTCACGTGGGCTT,-0.05
14,TGTGTCACGTGCAGTG,0
15,GAGGACACGTGGTGGC,0.01
16,ATGGACACGTGGTTTT,0.14
17,ATGCACACGTGGTTGT,-0.06
18,GGAGACACGTGAATGT,0.4
19,TAGTTCACGTGTTATA,0.31
20,TGGAACACGTGCGGGT,0.04
21,GTTGTCACGTGGTGCT,0.06
22,CTCGGCACGTGGGTGT,-0.38
23,ATGAGCACGTGTATAT,-0.1

row,Sequence,relative binding free energy [kcal/mol]
1,GAGCGCACGTGGTTGA,-0.12
2,TAACGCACGTGTAGGA,-0.01
3,TTCCGCACGTGTTGTA,0.04
4,ACATGCACGTGCGGGG,-0.03
5,GGGTACACGTGTTCTG,0.12
6,AGTTGCACGTGGTCGC,-0.13
7,GAGCTCACGTGGGTGT,0.16
8,TGTAGCACGTGCTGAT,-0.08
9,CAGGGCACGTGGTTTG,-0.15
10,TGTTTCACGTGGACTT,0.33
11,TTTTCCACGTGGGTGA,-0.18
12,GTGGCCACGTGGGTTA,-0.16
13,GGATTCACGTGCGGAA,0.35
14,TTCCTCACGTGGGGAT,0.24
15,TGGGGCACGTGATATT,-0.02
16,GGTGCCACGTGTATGG,0.05
17,GAATGCACGTGGATGT,0.06
18,CGTAGCACGTGGCTTG,-0.21
19,GTGATCACGTGGTCTT,-0.04
20,AGGAGCACGTGTTAGT,0
21,AATCTCACGTGGTTAT,0.34
22,GGCTGCACGTGATTTT,0.29
23,AGTCTCACGTGACGGG,0.4

row,Sequence,relative binding free energy [kcal/mol]
1,ATGGTCACGTGAGCTA,0.17
2,ATTATCACGTGTTTAA,0.21
3,GAGGTCACGTGAGAAT,0.49
4,TTGTACACGTGCTTGG,-0.01
5,AGATTCACGTGTTATG,0.18
6,ATTCACACGTGTTATG,0.19
7,TGCATCACGTGATGTG,0.08
8,TGTTTCACGTGAGTGG,0.32
9,GGGAGCACGTGAATTG,0.24
10,GTAGGCACGTGTGCGA,0.02
11,CAAAGCACGTGTAGTG,0.08
12,AGGGTCACGTGTGTCA,0.14
13,ATTGTCACGTGGTGTA,-0.07
14,ATTAGCACGTGTTGCT,-0.23
15,AGGTTCACGTGCGTAG,0.15
16,TGTCACACGTGGGGCG,-0.09
17,TTGAACACGTGGATTT,0.16
18,TTGATCACGTGTAGTG,0.14
19,TGGTGCACGTGGCAGA,-0.26
20,AGACGCACGTGGGGTT,-0.23
21,ATGGGCACGTGTGCAT,0
22,TCTATCACGTGAGTGG,0.28
23,TTTTGCACGTGGGGAG,-0.14

row,Sequence,relative binding free energy [kcal/mol]
1,AATATCACGTGGCGTG,0.1
2,AGTGGCACGTGATTTG,0.02
3,GGTAGCACGTGAGAGT,0.24
4,ATTATCACGTGATCGG,0.29
5,AAGTGCACGTGGTAGT,-0.15
6,TGGGACACGTGTTCGG,-0.03
7,CTAATCACGTGTGATT,0.26
8,GGTATCACGTGGTGAA,0.22
9,GGTAGCACGTGTAAGA,-0.01
10,GTAACCACGTGTGTGT,-0.06
11,TGGTACACGTGTTTCT,0.11
12,ATATACACGTGGGGAG,-0.22
13,GTACTCACGTGTTAAG,0.32
14,AGAGGCACGTGATGTT,-0.08
15,ATGAACACGTGGTAGT,-0.01
16,TCTAGCACGTGGGAGG,-0.1
17,GTGTGCACGTGAGTGG,0.28
18,TTGCACACGTGTGGTT,0.15
19,TATGTCACGTGTACGT,0.06
20,CAGAGCACGTGTGCGG,-0.07
21,AGGCACACGTGTTTGT,-0.01
22,TCGTGCACGTGGTGAA,-0.12
23,GTAGTCACGTGTTTCG,0.08

row,Sequence,relative binding free energy [kcal/mol]
1,GTGGTCACGTGGAAGC,0.2
2,AATTTCACGTGAACTG,0.4
3,GTGGTCACGTGGCAGC,0.1
4,CTTGTCACGTGAAAGG,0.27
5,TGCCTCACGTGGTAGG,-0.01
6,TTTACCACGTGGGGGT,-0.21
7,TTCTTCACGTGAGTGG,0.53
8,TAAGGCACGTGTAAAG,-0.1
9,GGTGTCACGTGAGGGT,0.26
10,GTGTTCACGTGAAGTA,0.31
11,ATTTCCACGTGTGGGA,0.04
12,GGTAGCACGTGCCGGT,-0.05
13,ATTGGCACGTGCTCGT,-0.29
14,AGGTACACGTGCGTGA,0.02
15,AATAGCACGTGTTTTG,-0.17
16,TTACTCACGTGTGGTA,0.07
17,TGAGACACGTGGGGCT,-0.08
18,ATTTACACGTGATAAG,0.22
19,CATTTCACGTGTTGTA,0.16
20,ACGTGCACGTGGTGGA,-0.13
21,TAGAGCACGTGATTAT,0.04
22,TTGTCCACGTGAAATT,0.36
23,GTATGCACGTGATGAG,-0.13
